# Laboratory results taken from the BET-seq Pho4 binding data (Le et al. 2018).
# Some of the results follow. These are noisy estimates, calculated here from bound and input reads.
# Molecular target: T1, Pho4 (S. cerevisiae) (UniProt P07270)
# T1 sequence: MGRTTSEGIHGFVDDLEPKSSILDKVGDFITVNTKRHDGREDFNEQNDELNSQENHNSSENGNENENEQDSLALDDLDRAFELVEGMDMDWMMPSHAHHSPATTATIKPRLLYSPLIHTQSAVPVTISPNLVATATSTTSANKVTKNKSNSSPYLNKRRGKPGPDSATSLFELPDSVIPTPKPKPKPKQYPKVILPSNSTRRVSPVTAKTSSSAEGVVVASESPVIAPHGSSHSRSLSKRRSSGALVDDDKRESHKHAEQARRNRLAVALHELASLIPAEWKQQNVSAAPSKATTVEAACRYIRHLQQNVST
# Assay: relative binding free energy (BET-seq); higher = weaker binding
# Conditions: reference: library average
row,Sequence,relative binding free energy [kcal/mol]
1,TTTATCACGTGGGTCG,0.13
2,TCGTACACGTGAGTTG,0.22
3,AAGCTCACGTGGGTGG,0.01
4,ATGAACACGTGAGTTT,0.32
5,AAGTGCACGTGACGTT,0.12
6,GGATGCACGTGTTGAC,0.07
7,ATTGTCACGTGGTTCA,0.07
8,TGGAACACGTGGGGTC,-0.13
9,AGTTACACGTGGTGAT,0.17
10,GAGGGCACGTGGTCTG,-0.21
11,TCCATCACGTGTGGGG,0.23
12,AGGTACACGTGAGGTC,0.26
13,TGTTACACGTGGAAAG,0.2
14,TTAAGCACGTGAGTGA,0.07
15,TGTTACACGTGCGGCT,0.14
16,GTAATCACGTGGCATG,0.03
17,GAGGTCACGTGATTTT,0.26
18,TTGCACACGTGGGGAA,-0.05
19,TGGAGCACGTGGAGTT,0.02
20,TGTTTCACGTGGGTTC,0.16
21,TTTGGCACGTGAGTAT,0.15
22,ATGTTCACGTGATGGT,0.33
23,AATAGCACGTGTTGGG,-0.07

row,Sequence,relative binding free energy [kcal/mol]
1,TGGTTCACGTGCAGTC,0.38
2,TATTACACGTGGTTGC,0.11
3,TTGGTCACGTGTTGGA,0.1
4,TTGCACACGTGGGGTT,-0.03
5,TCAAACACGTGGTGGG,-0.08
6,TGAGACACGTGGTGAG,0.03
7,GTATGCACGTGTCGGG,0
8,GATGCCACGTGGATGG,-0.02
9,GGAGGCACGTGGTGAA,-0.1
10,AGCGTCACGTGATGGA,0.17
11,GAAATCACGTGTGGGC,0.24
12,GATTGCACGTGATGAA,0.2
13,TGGGGCACGTGCTAAG,-0.09
14,GGGTACACGTGAGAAG,0.35
15,GTATGCACGTGTAGAT,0.1
16,AAAGGCACGTGAAGTG,0.08
17,AATAACACGTGAGGGT,0.12
18,TTTTGCACGTGGGTAG,-0.15
19,AAAAGCACGTGGTGTG,-0.16
20,TGACTCACGTGAATTG,0.43
21,TGGAGCACGTGGTTAC,-0.06
22,TTATACACGTGGCGTT,-0.05
23,CGGGACACGTGAAGGT,0.5

row,Sequence,relative binding free energy [kcal/mol]
1,TGAATCACGTGTAAGA,0.31
2,GCGTGCACGTGATGCG,0.16
3,GTTAGCACGTGGCGCG,-0.08
4,AGGCGCACGTGGGGAC,-0.22
5,AATAGCACGTGGAAGT,0.01
6,GTGGGCACGTGTACGA,0
7,CTTGTCACGTGAGGGG,0.31
8,GGGGTCACGTGGGAGA,0.17
9,CTTAGCACGTGTTGTA,-0.03
10,ACGAGCACGTGTTTGT,-0.08
11,GACAGCACGTGTGTTT,0.24
12,TCTTTCACGTGCGGTG,0.14
13,TCTAGCACGTGAGTTG,0.22
14,AGGAACACGTGGGGCG,-0.11
15,GATCTCACGTGTGTTG,0.16
16,ATTGTCACGTGCGAGG,0
17,TGCGGCACGTGGGCTT,-0.29
18,CTAATCACGTGTTGGG,0.15
19,TGTATCACGTGGTCAT,0.09
20,TATGTCACGTGTTCGC,0.15
21,ATTTGCACGTGGTTTC,0.04
22,AAGATCACGTGGAGGA,0.27
23,AGGGTCACGTGTCGCT,0.13

row,Sequence,relative binding free energy [kcal/mol]
1,TTTTCCACGTGTAGTG,0.07
2,GTCATCACGTGGGGAG,0
3,AGAAGCACGTGTGTCT,0.06
4,TAGGTCACGTGTTGTC,0.15
5,TTTGGCACGTGGTGGT,-0.05
6,ATACGCACGTGGAGGG,-0.07
7,TAGTTCACGTGCCGGG,0.11
8,AATGTCACGTGTGACT,0.26
9,AGTTGCACGTGGGTGC,-0.03
10,GGAGTCACGTGGCGGC,0.1
11,TGGCGCACGTGTGCTG,-0.14
12,TGGCGCACGTGGTGCA,-0.12
13,GGTCCCACGTGGGTTT,-0.09
14,GCTAGCACGTGGTGGG,-0.12
15,TTCGACACGTGAGGCG,0.26
16,GTACACACGTGGGGCG,0.06
17,TTGGTCACGTGGTTAA,0.07
18,GGTGGCACGTGCGTGA,-0.13
19,GGTGGCACGTGGGGCA,-0.11
20,TGTGTCACGTGGACAA,0.14
21,TGTCTCACGTGGTAGG,0.12
22,ATCGACACGTGGGGAG,-0.08
23,TTCGACACGTGGTGGT,-0.05

row,Sequence,relative binding free energy [kcal/mol]
1,GTTGTCACGTGCTGAG,0.26
2,ATTGGCACGTGATGAG,-0.04
3,ATGAGCACGTGCGGGT,-0.23
4,GTCGTCACGTGGGTGT,0.02
5,CAGAACACGTGTGGTG,0.1
6,GTAGACACGTGTGGAG,0.03
7,GAATACACGTGGGGTC,0.04
8,TTAGGCACGTGTGTTG,-0.03
9,GGGGTCACGTGTGCCG,0.21
10,AAATGCACGTGTGTGC,-0.02
11,GGGAACACGTGATTGA,0.15
12,TTTAACACGTGGTATA,-0.09
13,TGAGACACGTGTTTTT,-0.05
14,TGTGTCACGTGAATGA,0.24
15,TTACTCACGTGGGTGC,-0.01
16,TGTTCCACGTGTGTAA,0.07
17,GCGTGCACGTGTTTGG,-0.06
18,GCGGGCACGTGGGTTG,-0.2
19,GTAGTCACGTGTTGGA,0.09
20,TGTTGCACGTGCTCTT,-0.01
21,GTTGTCACGTGTTTGT,0.18
22,GTGTCCACGTGGGTAG,-0.07
23,CGTCGCACGTGATGTT,0.17
